# Out of some 39,000 compounds screened, about 220 (0.56%) showed activity. The list shows a part of the results.
# System: Escherichia coli K-12 BW25113
# Assay: relative growth (OD600 normalised to plate interquartile mean) (fraction); higher = less growth inhibition, active = 0.2 or less
# Details: 50 µM; LB; incubation time: overnight (16-24 h)
# 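Further: static incubation at 37 °C against the wild-type strain, values averaged over two biological replicates.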
row,Compound,relative growth
1,C[C@H](CO)N1C[C@H](C)[C@H](CN(C)C(=O)Nc2cccc3ccccc23)Oc2c(NS(=O)(=O)c3ccc(Cl)cc3)cccc2C1=O,inactive: 1.02
2,CC(C)(C)[C@H]1COC(=O)[C@@H](NC(=O)OCC2c3ccccc3-c3ccccc32)CC=CC[C@H](CC(=O)N(CCO)Cc2ccccc2)C(=O)N1,inactive: 1.01
3,C[C@@H]1CN([C@H](C)CO)C(=O)Cc2cc(NC(=O)Nc3ccc(F)cc3)ccc2O[C@@H]1CN(C)Cc1ccc(Cl)c(Cl)c1,inactive: 1.02
4,C[C@@H]1CN([C@@H](C)CO)S(=O)(=O)c2ccc(C#CC3CCCC3)cc2O[C@H]1CN(C)C(=O)Cc1ccncc1,inactive: 0.967
5,C[C@@H]1CCCCO[C@@H](CN(C)C(=O)NC2CCCCC2)[C@H](C)CN([C@H](C)CO)C(=O)c2cc(NC(=O)C3CCCCC3)ccc2O1,inactive: 1.01
6,C[C@H](CO)N1C[C@H](C)[C@H](CN(C)C(=O)NC2CCCCC2)Oc2c(NC(=O)c3ccc(-c4nccs4)cc3)cccc2C1=O,inactive: 0.999
7,COc1ccc(NC(=O)Nc2ccc3c(c2)C(=O)N([C@@H](C)CO)C[C@@H](C)[C@H](CN(C)C(=O)Nc2ccc(OC)cc2)OCCCC[C@@H](C)O3)cc1,inactive: 1
8,C[C@@H]1CCCCO[C@@H](CN(C)Cc2ccc(C(=O)O)cc2)[C@@H](C)CN([C@@H](C)CO)C(=O)c2cc(NC(=O)c3ccccc3)ccc2O1,inactive: 1.01
9,C[C@H]1CN([C@@H](C)CO)S(=O)(=O)c2ccc(C#CCC3CCCC3)cc2O[C@H]1CN(C)C(=O)CN(C)C,inactive: 0.953
10,C[C@@H]1CN([C@@H](C)CO)C(=O)c2cc(NC(=O)c3ccccc3)ccc2O[C@@H](C)CCCCO[C@@H]1CN(C)S(=O)(=O)c1ccc(F)cc1,inactive: 1.01
11,C[C@@H]1CN([C@@H](C)CO)C(=O)c2cc(NC(=O)Nc3ccc4c(c3)OCO4)ccc2O[C@H]1CN(C)Cc1ccc(-c2ccccc2)cc1,inactive: 0.991
12,Cc1c(C(N)=O)nnn1-c1ccc(F)cc1,inactive: 0.984
13,Cc1ccc(S(=O)(=O)N(C)C[C@@H]2OCCCC[C@H](C)Oc3ccc(NS(=O)(=O)c4ccc(Cl)cc4)cc3C(=O)N([C@H](C)CO)C[C@@H]2C)cc1,inactive: 0.996
14,O=C(NC1CCCCC1)[C@@H]1C(c2ccc(Cl)cc2)=C(S(=O)(=O)c2ccccc2)C(=O)N1Cc1ccc(-c2ccccc2)cc1,inactive: 1.03
15,C[C@@H]1CN([C@@H](C)CO)C(=O)c2cc(NC(=O)Nc3cccc4ccccc34)ccc2O[C@@H](C)CCCCO[C@@H]1CN(C)Cc1ccc(C(=O)O)cc1,inactive: 1.01
16,C[C@H](CO)N1C[C@H](C)[C@H](CN(C)Cc2ccc(Oc3ccccc3)cc2)Oc2c(NC(=O)C3CCCCC3)cccc2C1=O,inactive: 1
17,CCCCN(CCCC)CC(O)c1cc(Cl)cc2c1-c1ccc(Cl)cc1C2=Cc1ccc(Cl)cc1 (configuration not stated),inactive: 1.15
18,NC(=O)OCC(COC(N)=O)c1ccccc1,inactive: 0.994
19,Cc1nc2ccccn2c(=O)c1CCN1CCC(C(=O)c2ccc(F)cc2)CC1,inactive: 0.874

row,Compound,relative growth
1,Cc1ccc(S(=O)(=O)Nc2ccc3c(c2)C(=O)N([C@@H](C)CO)C[C@@H](C)[C@H](CN(C)S(C)(=O)=O)OCCCC[C@@H](C)O3)cc1,inactive: 1.03
2,C[C@@H]1CN([C@@H](C)CO)C(=O)c2cc(NC(=O)Nc3cccc4ccccc34)ccc2O[C@@H](C)CCCCO[C@H]1CN(C)C(=O)Nc1ccc2c(c1)OCO2,inactive: 1.06
3,Cc1ccc(S(=O)(=O)Nc2ccc3c(c2)C(=O)N([C@H](C)CO)C[C@@H](C)[C@@H](CN(C)Cc2ccc(C(F)(F)F)cc2)OCCCC[C@@H](C)O3)cc1,inactive: 1.07
4,O=C(O)c1ccc(C(=O)O)nc1,inactive: 0.988
5,CSc1nc2cc(Cl)c(Oc3cccc(Cl)c3Cl)cc2[nH]1,inactive: 0.82
6,C[C@@H]1CN([C@@H](C)CO)C(=O)c2cc(NS(=O)(=O)c3ccc(Cl)cc3)ccc2O[C@@H](C)CCCCO[C@@H]1CN(C)S(=O)(=O)c1ccccc1,inactive: 0.899
7,C[C@@H]1CCCCO[C@@H](CN(C)C(=O)NC2CCCCC2)[C@H](C)CN([C@@H](C)CO)C(=O)c2cc(NC(=O)c3ccncc3)ccc2O1,inactive: 1.01
8,C[C@@H]1CN([C@H](C)CO)C(=O)c2cc(NS(=O)(=O)c3ccccc3)ccc2O[C@@H](C)CCCCO[C@H]1CN(C)C(=O)Nc1ccc(C(F)(F)F)cc1,inactive: 1.01
9,Cc1noc(C)c1S(=O)(=O)N(C)C[C@H]1Oc2ccc(NC(=O)C3CC3)cc2CC(=O)N([C@H](C)CO)C[C@H]1C,inactive: 1
10,CN(C)c1cnccn1.O=S(=O)(O)O,inactive: 1.03
11,COCCNC(=O)C[C@@H]1CC[C@@H](NS(=O)(=O)c2ccc(C)cc2)[C@H](CO)O1,inactive: 1.02
12,C[C@@H]1CN([C@@H](C)CO)C(=O)Cc2cc(NC(=O)CCN3CCOCC3)ccc2O[C@H]1CN(C)CC1CC1,inactive: 0.993
13,C[C@@H]1CCCCO[C@@H](CN(C)S(=O)(=O)c2cn(C)cn2)[C@H](C)CN([C@H](C)CO)C(=O)c2cc(NS(=O)(=O)c3cn(C)cn3)ccc2O1,inactive: 0.994
14,C[C@@H]1CN([C@H](C)CO)C(=O)c2cc(NC(=O)Nc3ccc(C(F)(F)F)cc3)ccc2O[C@@H]1CN(C)Cc1ccccc1,inactive: 0.948
15,C[C@H](CO)N1C[C@H](C)[C@@H](CN(C)C(=O)Nc2cccc3ccccc23)Oc2ccc(NC(=O)C3CCCCC3)cc2C1=O,inactive: 0.998
16,O=C(C[C@H]1CC[C@H](NS(=O)(=O)c2ccccc2F)[C@@H](CO)O1)NCCCN1CCOCC1,inactive: 0.983
17,C[C@@H]1CN([C@@H](C)CO)C(=O)c2cc(NC(=O)Nc3ccccc3)ccc2O[C@@H](C)CCCCO[C@H]1CN(C)S(=O)(=O)c1cccs1,inactive: 1.06
18,CO[C@@H]1CN(C)C(=O)c2ccc(NS(C)(=O)=O)cc2OC[C@@H](C)N(S(=O)(=O)CC(F)(F)F)C[C@H]1C,inactive: 0.981

# From the supplement of paper PMC9446081
